Test results published in PubChem BioAssay AID686979 (National Center for Advancing Translational Sciences (NCATS), 2013).
Hit rate of the full screen: of about 420,000 compounds, about 50,000 (12%) were called active. This list was built around the results that the source calls inconclusive (neither active nor inactive); the mix of calls is not that of the screen. Calls come from the whole dose curve; as a rule, active = well fitted inhibition curve with a large enough effect; inconclusive = small, poorly fitted or top-dose-only effect; inactive = flat fitted curve, though single readings scatter. No potency is given beside an inconclusive call; the fits are too rough.
Potency is the fitted concentration of half-maximal effect; tags give direction and shape of the fitted curve.

Test: qHTS for Inhibitors of human tyrosyl-DNA phosphodiesterase 1 (TDP1): qHTS in cells in presence of CPT; note: nearly all actives have a fitted effect of over 55% in size
Conditions: chicken DT40 Tdp1-/-;hTDP1 cells + 20 nM CPT, ATP luminescence, 48 h; series mostly up to 46.2 µM
How it was run: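 Chicken DT40 Tdp1-/- cells complemented with human TDP1, 400 cells/well, exposed to compounds plus 20 nM camptothecin for at least 48 h at 37 C; viability read as ATP content by CellTiter-Glo luminescence.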
In the case of `COC(=O)c1ccc(C(=O)NC(=S)Nc2nc3c(s2)CCCC3)cc1`, the Potency is reported as inconclusive [inhibitor, single point].
With `COc1cc(OC)c(NC(C)C(=O)N2CCCC2)cc1Cl` (stereo not drawn) the Potency was “inactive”.
With `C=CCC(CC=C)(CNC(=O)C(=O)Nc1cccc(C(F)(F)F)c1)c1ccccc1` the Potency was active: 18.4 µM.
In the case of `COc1ccc(CCNC(=O)[C@H](C)N2C(=O)N3CCc4c([nH]c5ccccc45)[C@@]3(C)C2=O)cc1`, the Potency is reported as active: 20.6 µM.
For `Cc1ccc(Cl)cc1N1CCN(C(=S)NCc2ccco2)CC1`, the Potency was “inactive”.
In the case of `NC(=S)NNC(=O)c1cccc(Cl)c1`, the Potency is reported as “inactive”.
For `CC(=O)Nc1cc(C(=O)NCc2ccc(C)cc2)ccc1Sc1ccc(C)cc1`, the Potency was active: 16.4 µM.
For `COc1cc(CCC(=O)OCC(=O)Nc2ccccc2C(C)C)cc(OC)c1OC`, the Potency was “inactive”.
For `COc1ccc(CCN(Cc2cccs2)S(=O)(=O)c2ccc(S(=O)(=O)N3CCCCCC3)cc2)cc1OC`, the Potency was inconclusive [inhibitor, single point].
In the case of `O=C1c2ccccc2C(Nc2ccc(Cl)cn2)N1c1ccccn1` (stereo not drawn), the Potency is reported as inconclusive [inhibitor, single point].
For `O=C(CC(c1cccs1)N1Cc2ccccc2C1=O)Nc1ccc(F)c(Cl)c1` (stereo not drawn), the Potency was “inactive”.
In the case of `O=C(NCCc1ccccc1)c1cc2sccc2n1Cc1ccccc1`, the Potency is reported as inconclusive [inhibitor, single point].
For `Cc1ccccc1-c1cncnc1NCCN1CCOCC1`, the Potency was active: 2.91 µM.
With `COc1ccc(/C=C/C(=O)Nc2c(C)nn(C)c2C)cc1COc1ccc(Cl)cc1Br` the Potency was active: 18.4 µM.
With `O=[N+]([O-])c1cccc(CNc2ccc3c(c2)CCC3)c1` the Potency was inconclusive [inhibitor, partial curve].
With `Cc1ccc(NS(=O)(=O)c2cc(N)ccc2Cl)c(C)c1` the Potency was “inactive”.
For `CCOC(=O)c1ccc(N2CCN(c3cccc(Cl)c3)CC2)c(NC(=O)Nc2ccc(OC)cc2OC)c1`, the Potency was “inactive”.
In the case of `Cc1ccc(NC(=O)COc2ccc(N(C)S(=O)(=O)c3ccc(F)cc3)cc2)cc1`, the Potency is reported as inconclusive [inhibitor, single point].
With `COc1cc(/C=C/C(=O)OCC(=O)Nc2ccccc2Sc2ccc(Cl)cc2)ccc1O` the Potency was inconclusive [inhibitor, single point].
In the case of `O=C1C2CC=CCC2C(=O)N1c1ccc(OCC(O)Cn2nnc3ccccc32)cc1` (stereo not drawn), the Potency is reported as inconclusive [inhibitor, single point].
In the case of `CC1(C(=O)NCc2ccccc2Br)CCN1C(=O)CCc1ccc(Cl)cc1Cl` (stereo not drawn), the Potency is reported as inconclusive [inhibitor, single point].
For `O=C(Nc1nccs1)C12CC3CC(C1)CC(C(=O)Nc1nccs1)(C3)C2`, the Potency was inconclusive [inhibitor, single point].
In the case of `COc1ccc(-c2onc(C)c2C)cc1S(=O)(=O)NCC1CCN(Cc2ccccc2F)CC1`, the Potency is reported as inconclusive [inhibitor, single point].
For `CCOC(=O)CSc1nc2ccccc2c(=O)n1CCc1ccc(OC)c(OC)c1`, the Potency was active: 13 µM.
With `O=C(C1CCN(c2nnc(-n3cccc3)s2)CC1)N1CCc2ccccc2C1` the Potency was inconclusive [inhibitor, single point].
With `O=C(Nc1ccc(Cl)cc1C(=O)Nc1ccc(Br)cn1)c1ccco1` the Potency was inconclusive [inhibitor, single point].
In the case of `CN(CC(=O)Nc1ccccc1Cl)C(=O)c1cccc(S(=O)(=O)N2CCN(c3ccccc3)CC2)c1`, the Potency is reported as inconclusive [inhibitor, single point].
With `COc1ccc(-c2cc(=O)oc3c(C)c(O)c(CN(C)C)cc23)cc1` the Potency was inconclusive [inhibitor, single point].
In the case of `Cc1cccc(-n2c(=O)c3c(c4cc(C)ccc4n3C)n(CC(=O)NCCC3=CCCCC3)c2=O)c1`, the Potency is reported as inconclusive [inhibitor, full curve, poor fit].
For `COc1ccc(-c2ccc(C(=O)N3CCN(C)CC3)c3occc23)c(C)c1`, the Potency was active: 14.6 µM.
In the case of `COc1ccc(-c2noc(-c3cccnc3NCc3ccco3)n2)cc1`, the Potency is reported as “inactive”.
With `CCc1cccc(C)c1NC(=O)CSc1nc(C)cc(C)c1C(=O)Nc1ccccc1` the Potency was inconclusive [inhibitor, single point].
In the case of `Cc1cccc(CN2CCCC(C(=O)Nc3ccccc3Oc3cccnc3)C2)c1` (stereo not drawn), the Potency is reported as inconclusive [inhibitor, partial curve].
In the case of `CCN(C(=S)Nc1ccc(Oc2ccccc2)cc1)c1ccccc1`, the Potency is reported as “inactive”.
With `CC(C)C(=O)Nc1c(-c2cccc(Cl)c2)c(=O)c2ccccc2n1C` the Potency was active: 18.4 µM.
In the case of `N#Cc1ccc(C(=O)OCc2cccc(S(=O)(=O)N3CCOCC3)c2)cc1`, the Potency is reported as inconclusive [inhibitor, single point].
With `O=C(Cn1[nH]c(=O)c2ccccc2c1=O)OCC(=O)N(Cc1ccccc1)Cc1ccccc1` the Potency was inconclusive [inhibitor, single point].
In the case of `COc1ccc(/C=C\C(=O)Oc2cccc(/C=N/NC(=O)Cc3ccc(OC)c(OC)c3)c2)cc1`, the Potency is reported as inconclusive [inhibitor, single point].
With `CCCNC(=O)C(Cc1ccc(C(F)(F)P(=O)(OCC)OCC)cc1)NC(=O)c1ccc(C#N)cc1` (stereo not drawn) the Potency was inconclusive [inhibitor, single point].
For `Cc1ccc(Oc2c(C(F)(F)F)oc3cc(OCC(=O)NC4CCCCC4)ccc3c2=O)cc1`, the Potency was inconclusive [inhibitor, single point].
For `COc1ccccc1N(CN1CCCC1=O)C(=O)c1c(F)cccc1F`, the Potency was inconclusive [inhibitor, single point].
With `CCOC(=O)N1CCC(N2Cc3cccc(C(=O)NCc4ccc5c(c4)OCO5)c3C2=O)CC1` the Potency was inconclusive [inhibitor, single point].
With `CC(C)(C)OC(=O)N(Cc1ccccc1)Cc1ccccc1OCc1cccc(NC(=O)C2CCC2)c1` the Potency was inconclusive [inhibitor, single point].
